Experimental data from PubChem BioAssay AID1508624 (National Center for Advancing Translational Sciences (NCATS), 2021).
Among all 48,000 compounds or so, about 120 (0.25%) were called active. About 4% were inconclusive and are not listed. The call rests on the fitted dose curve; in most records, active means well fitted activation curve with a large enough effect; inconclusive means small, poorly fitted or top-dose-only effect, or another doubt; inactive means no such curve, though single readings can be large or run the other way. The list shows a part of the results.

Test: Primary qHTS for Identification of Small Molecule Activators of Huntingtin-Antisense Promoter Activity; further: nearly all actives have a fitted effect of over 55% in size
Settings: HEK293 HTT-AS promoter firefly luciferase reporter (activity 0% = vehicle and -100% = no light), 24 h; series mostly up to 57.5 µM; activity change, positive = activation: at the top concentration
In short: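 Luminescence was read after Dual-Glo reagent and a 10 min room-temperature incubation. Values were normalized to vehicle (0% activity) and zero RLU (-100% activity). Reporter HEK293 cells had been exposed to compounds (up to 57.5 uM final) for 24 h.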

| SMILES | activity change, positive = activation |
| --- | --- |
| Cc1c2cnn(CC(=O)NCC(C)c3ccccc3)c(=O)c2c(C)n1Cc1cccc(Cl)c1 (configuration not stated) | inactive: -22.2% |
| Cc1ccc(C)c(NC(=O)Cn2nnc(C(=O)NCc3ccccc3Cl)c2N)c1 | inactive: -9.11% |
| COc1cccc(C2NC(=O)c3n[nH]c(-c4cccs4)c32)c1 (configuration not stated) | inactive: -16% |
| COc1ccc(Br)cc1CNC(=O)c1cnc2sc(N3CCCC3)nn2c1=O | inactive: -1.13% |
| CN1CCN(C(CNC(=O)c2ccccc2F)c2ccc3c(c2)OCO3)CC1 (configuration not stated) | inactive: -8.49% |
| O=C(Cn1c(=O)nc(-c2ccccc2)c2ccccc21)NCCc1ccc(Cl)cc1 | inactive: -0.284% |
| COc1ccc(C(=O)N(Cc2cc(OC)c(OC)c(OC)c2)c2ccccn2)cc1 | inactive: -25.8% |
| Cc1cc2[nH]c(=O)c(=O)[nH]c2cc1S(=O)(=O)N1CCN(c2cccc(C(F)(F)F)c2)CC1 | inactive: 1.39% |
| CCCCN(CC)CCNC(=O)CCn1cnc2onc(-c3ccc(F)cc3)c2c1=O | inactive: -24% |
| COc1ccc(NC(=O)c2sc3nc(-c4cc5ccc(OC)cc5oc4=O)[nH]c(=O)c3c2C)cc1 | inactive: -9.56% |
| Cc1cccc(-n2cc(-c3ccccc3)c3c(N4CCC(C)CC4)ncnc32)c1 | inactive: -17.3% |
| COc1ccc(-c2cn3nc(N4CCCC(C(=O)Nc5cc(C)ccc5C)C4)sc3n2)cc1 (configuration not stated) | inactive: -13.5% |
| COc1cc(NC(=O)NCC2CCN(Cc3ccccc3Cl)CC2)cc(OC)c1OC | inactive: 0.552% |
| O=C(O)CCc1nc(-c2ccccc2)c(-c2ccccc2)o1 | inactive: -32% |
| COc1ccc(OC)c(CCNC(=O)CCc2cn(Cc3cc(C)ccc3C)c3ccccc23)c1 | inactive: -28.6% |
| O=C(Cn1c(=O)c2cccn2c2ccc(F)cc21)N1CCN(c2ccccc2F)CC1 | inactive: -12.4% |
| Cc1ccc(Cl)cc1NS(=O)(=O)c1ccc2c(c1)NC(=O)CCS2 | inactive: -26.7% |
| CC(C)Nc1cc(C(F)(F)F)cc2nc(NC(=O)c3cccnc3)nn12 | inactive: -9.33% |
| Cc1ccc(CNC(=O)c2c(Nc3ccccc3C)sc(C(=O)c3ccc(F)cc3)c2N)cc1 | inactive: -27.2% |
| COc1ccc(CC(=O)NCC(c2cccs2)S(=O)(=O)c2ccc(F)cc2)cc1 (configuration not stated) | inactive: -18% |
| COc1cccc(-c2nn(C)c3sc(C(=O)NCc4ccc(OC)cc4OC)cc23)c1 | inactive: 0% |

| SMILES | activity change, positive = activation |
| --- | --- |
| Cc1ccc(C(=O)N(Cc2ccco2)c2ccccn2)cc1 | inactive: 23.2% |
| COc1cc(NC(=O)c2nn(C)c3c2COc2ccccc2-3)cc(OC)c1OC | inactive: -5.65% |
| CCOc1ccccc1NC(=O)C1=C(C)Nc2ncnn2C1c1ccco1 (configuration not stated) | inactive: -8.75% |
| COc1ccc(CCNC(=O)c2ccc(Cn3c(SCc4ccccc4)nc4cccnc43)cc2)cc1 | inactive: -25.2% |
| CCc1cnc2c(c1SC(C(C)=O)C(=O)N(C)C)c(=O)n(C)c(=O)n2C (configuration not stated) | inactive: -5.98% |
| CC(C)c1cc(-c2nc(-c3ccc(Cl)cc3)no2)n[nH]1 | inactive: 15.5% |
| O=C(CCn1c(=O)c2ccccc2n(CC(=O)Nc2ccc(F)cc2)c1=O)NCCc1ccccc1 | inactive: -12.4% |
| CCc1ccc(C2CC(=O)Nc3c2c(=O)nc2c(C)cccn32)cc1 (configuration not stated) | inactive: -8.88% |
| Cc1cccc(NC(=O)Cn2c(=O)n(Cc3ccccc3)c(=O)c3oc4ccccc4c32)c1C | inactive: -11.6% |
| CC(C)c1ccc(NC(=O)c2ccc(CN3CC(=O)N4CCCCC4C3=O)cc2)cc1 (configuration not stated) | inactive: -3.05% |
| COc1ccccc1C(=O)Nc1ccc(C(=O)OCc2cc(=O)n3c4c(sc3n2)CCCC4)cc1 | inactive: -2.29% |
| Cc1ccc(CNC(=O)c2c(Nc3c(C)cccc3C)sc(C(=O)c3ccccc3)c2N)cc1 | inactive: -24.4% |
| CCOc1ccc(C2C(C(N)=O)=C(C)Nc3nc(SCc4ccccc4F)nn32)cc1 (configuration not stated) | inactive: -6.62% |
| COc1ccccc1NC(=O)c1cnn(-c2ccccc2)c1-n1cccc1 | inactive: -10.4% |
| CCOC(=O)c1ccccc1NC(=O)c1c(C)oc2ncnc(N3CCOCC3)c12 | inactive: -21.3% |
| COc1cccc(-n2c(=O)c3c(C)c(C)sc3n(Cc3ccccc3C#N)c2=O)c1 | inactive: -30.3% |
| COc1ccc(-c2nc3sc(CCNC(=O)C(=O)Nc4ccccc4C#N)c(C)n3n2)cc1 | inactive: 3.9% |
| COCCCNC(=O)c1ccc(Cn2c(=O)c3ccccc3n(Cc3ccc(Cl)cc3)c2=O)cc1 | inactive: -17.6% |
| Cc1cccc(-n2c(SCC(=O)Nc3ccc(C)c(C)c3)nc3n[nH]c(C)c3c2=N)c1 | inactive: -43% |
| O=C(c1ccc2c(c1)N(Cc1ccc(Cl)cc1)C(=O)c1ccccc1S2(=O)=O)N1CCOCC1 | inactive: -15.8% |
| CCCCC(CC)CNC(=O)CCCCCn1c(=O)[nH]c2ccsc2c1=O (configuration not stated) | inactive: -22.2% |

| SMILES | activity change, positive = activation |
| --- | --- |
| CCc1ccc(-n2c(=O)c3ccccc3n(Cc3ccccc3C#N)c2=O)cc1 | inactive: -14.9% |
| CC(C)c1ccc(NC(=O)c2ccc(=O)n(Cc3ccccc3)c2)cc1 | inactive: -20.6% |
| COc1cccc(C2C(C(N)=O)=C(C)Nc3ncnn32)c1 (configuration not stated) | inactive: 5.68% |
| O=C(CSc1nc2c(oc3ccccc32)c(=O)n1-c1ccccc1)Nc1ccc(F)c(Cl)c1 | inactive: -8.4% |
| COc1ccc(OC)c(NC(=O)C2=C(C)C(=O)OC23CCN(C(C)C)CC3)c1 | inactive: -5.94% |
| Fc1ccc(N2CCN(c3ncnc4onc(-c5ccc(Cl)cc5)c34)CC2)cc1 | inactive: -25.4% |
| CCOC(=O)c1c(NC(C)=O)c2c3c(sc2n1Cc1cc(C)ccc1C)CCCC3 | inactive: -6.66% |
| Cc1ccc(N(CC2=NCCN2)c2cccc(O)c2)cc1 | inactive |
| CCOc1ccccc1NC(=O)Cn1c(=O)n(Cc2ccco2)c(=O)c2sc3ccccc3c21 | inactive: -14.9% |
| CN(C)c1ccc(CNC(=O)c2ccc3nc(Cc4ccccc4)oc3c2)cc1 | inactive: -27.1% |
| O=C(O)CCn1ccc2cc(S(=O)(=O)N3CCCCCC3)ccc21 | inactive: -15.7% |
| CSc1ccc(CCNC(=O)c2csc3c2CCCCC3)cc1 | inactive: -9.11% |
| Cc1cc(C)c(NC(=O)C(=O)NCCc2csc(-c3ccc(F)cc3)n2)c(C)c1 | inactive: -32.9% |
| COc1cc(Nc2nc(-c3ccc(OC)c(OC)c3)nc3ccccc23)cc(OC)c1 | inactive: -39.7% |
| Cc1cccn2c(=O)c(C(=O)N3CCN(c4ccccc4)CC3)cnc12 | inactive: 15.6% |
| COc1ccccc1Nc1c2c(nc3ccc(NC(=O)c4ccc(N(C)C)cc4)cc13)CCCC2 | inactive: -42.4% |
| Cc1ccc(C(=O)c2c(N)c(C(=O)Nc3cccc(C(F)(F)F)c3)c3ccccn23)cc1 | inactive: 6.59% |
| Cc1ccc(-n2c(=O)c3oc4ccccc4c3n(Cc3cccc(F)c3)c2=O)cc1C | inactive: -37.5% |
| Cc1nc2nc(NCc3ccc(Br)cc3)[nH]n2c(=O)c1Cc1ccccc1 | inactive: -24.9% |
| CCCCOc1ccc(C(=O)Nc2cccc(-c3nc4ccccc4o3)c2C)cc1 | inactive: -12.4% |
